Experimental data: patent US20230192801A1 (Novo Nordisk, published 2023)

B1: A9E, B3E, B26E, desB30 human insulin (ligand)
chain 1: not shown
chain 2: FVEQHLCGSHLVEALYLVCGERGFFETPK
notes: Two-chain insulin analogue made in yeast (General Procedure B)
B2: A9D, B3E, B26E, desB30 (ligand)
chain 1: not shown
chain 2: FVEQHLCGSHLVEALYLVCGERGFFETPK
notes: as for B1
B3: A9E, B3E, B27E, B28E, desB30 human insulin (ligand)
chain 1: not shown
chain 2: FVEQHLCGSHLVEALYLVCGERGFFYEEK
notes: as for B1

target: T1, solubilised human IR-A (IR-A holoreceptor semipurified by wheat germ agglutinin chromatography from BHK cells) (human); experiment: competition SPA, displacement of [125I-A14Y]-human insulin from solubilised human IR-A; affinity relative to human insulin standard
T1 construct: mature; Detergent-solubilised holoreceptor, captured through anti-IR mouse antibody 83-7 on SPA beads; The A isoform lacks exon 11; also called hIRA; human insulin receptor (IR)
Experimental: Plates are incubated with gentle shaking for 22-24 h at 22° C., centrifuged at 2000 rpm for 2 minutes and counted on a TopCount NXT (Perkin-Elmer Life Sciences).
Data from the SPA are analysed according to the four-parameter logistic model (Volund A (1978) Biometrics 34 357-365), and the binding affinities of the analogues calculated relative to that of the human insulin standard measured within the same plate.

In order of rising “hIRA (% rel to HI), relative binding affinity” value:
1. B3  59.5 % rel to HI
2. B2  75.5 % rel to HI
3. B1  83.2 % rel to HI
